Assay results taken from the RNAGym collection of RNA variant scans (doi:10.7554/elife.90254).
Read counts are not given, so values of variants with three or more changes are uncertain.

B1: LINE1-mini (parent)
chain: GGCAGAGCUCAACACAGCGUGGCAAAGUGGCUGUGGCUAGACUGCC

Variants of: B1
Experiment: self-cleavage, relative activity (ratio to wild type); higher = more cleavage; in vitro, sequencing; the parent is a self-cleaving ribozyme

| Variant | self-cleavage |
| --- | --- |
| C3G A14U C18U A41C C46A | 0.07 |
| C3U C10A G21U U38A | 0.13 |
| C3U A24U G40U | 0.09 |
| C3U C10A G35A | 0.02 |
| C3G A24C C31U | 0.04 |
| C3G G5A C23A G36U | 1.16 |
| C3G A16C C37G U38A A41C | 0.02 |
| C3G C13U G19U U20C G30C C46G | 0.04 |
| C3G G7U C8U U20G | 0.2 |
| C3U A25C C37U G44A | 0.07 |
| C3G C10G U20C U32C C46A | 0.02 |
| C3U A4C A11U A24G U34G | 0.03 |
| C3G A16C A41G | 0.08 |
| C3G C31A C46U | 0.08 |
| C3U C8A G27U U32C | 0.35 |
| C3U A4G G5U A6G G33U | 0.39 |
| C3U A11G A16G G17U G22C U34G | 0.01 |
| C3U A16G C42A U43A C46A | 0.18 |
| C3G A24U G35A C37A U43G | 0.01 |
| C3G C10G G21C G22A G36C C45G | 0.01 |
| C3G G17U A39G G40U | 0.03 |
| C3U A4C G19C | 0.08 |
| C3G U9C U20G | 0.01 |
| C3G U9G C13U C15U G19A A39C | 0.05 |

| Variant | self-cleavage |
| --- | --- |
| C3G C13U G21C A25U G40U | 0.11 |
| C3G C8A C31A | 0.32 |
| C3G G19U G44C | 1.32 |
| C3G G19U G44A | 0.39 |
| C3G G5U C10G G44C | 0.06 |
| C3U A4C C18A A26G U38C G40A G44U | 0.04 |
| C3G A16U G19C G22U C45U | 0.64 |
| C3G U38G C46U | 0.13 |
| C3G C15A G30U G33A C37G | 0.18 |
| C3G C18G U34C C45G | 0.08 |
| C3G U28G C45G | 0.04 |
| C3G G5U A14C U34G | 0.03 |
| C3G G7C C13A G19U G30U G40U | 0.02 |
| C3U A26G U32A C45U | 0.08 |
| C3G G27U U34G | 0.04 |
| C3U A14C G19A C42G | 0.04 |
| C3G A24C U43G | 0.02 |
| C3G A16G G33U | 0.05 |
| C3G C37G C45G | 0.07 |
| C3G A25U C37A C46U | 0.12 |
| C3G U20G A24G | 0.64 |
| C3G A14G A16C | 0.02 |
| C3U C8G C10A A16G G27C C37A | 0.01 |
| C3G C23G G40U A41C C45A | 0.05 |

| Variant | self-cleavage |
| --- | --- |
| C3U A4C C31A G40U G44U | 0.01 |
| C3G G17U C23U | 0.21 |
| C3G C23U G36U G44C | 0.02 |
| C3U C13U G27C U28G | 0.14 |
| C3U A4U A6C G29C G35U | 0.02 |
| C3G C18U U32C A39C | 0.15 |
| C3U C8U A16G G44A | 0.05 |
| C3G C15U A16G G19U U20C | 0.14 |
| C3U A11C G21A G29U C31U | 0.02 |
| C3G U9A C15A G22C | 0.36 |
| C3U A12U G33U | 0.12 |
| C3U C13U G44U | 0.05 |
| C3G U9A G29A G30A | 0.06 |
| C3U A4C C10U | 0.06 |
| C3U A16U C31U A41G G44U | 0.01 |
| C3G G29U G35A | 0.32 |
| C3U C8G G22U A26C | 0.05 |
| C3G G5C C8G | 0.39 |
| C3G A12C C13G U34G C42G | 0.02 |
| C3U C10A C31G | 0.02 |
| C3U A11G G21U C37A | 0.02 |
| C3G A12G C13G | 0.16 |
| C3U C10A U43C | 0.02 |
| C3U C10U G36C G40C | 0.04 |

| Variant | self-cleavage |
| --- | --- |
| C3G U38G G44C | 0.01 |
| C3G U38A G44C | 0.24 |
| C3G C31G A41C | 0.04 |
| C3U C8U G27A U34A G35C | 0.55 |
| C3G A14U A24C | 0.34 |
| C3G A14U C45A C46G | 0.4 |
| C3U A6G C42G | 0.14 |
| C3U A14U C18A C31U | 0.01 |
| C3U C8G U32G | 0.02 |
| C3U A14U C18G C42A | 0.08 |
| C3G G7U C13A | 2.26 |
| C3G C45G C46G | 0.77 |
| C3U A4G A11C G29A G36C | 0 |
| C3G G7C C10A G19A U28G G29U U43A | 0.01 |
| C3G G21A G33A | 0.07 |
| C3G C13A A25C C37G A39U | 0.11 |
| C3U A16C G17U G36A G44C | 0 |
| C3G U9C G40C U43C | 0.11 |
| C3G A12U U38A | 0.22 |
| C3U A14U G19U G22U G27U | 0.37 |
| C3G G5U C13U G19C G30U | 0.15 |
| C3G A12C C18U C23A | 0.02 |
| C3G G7A C13G A26G | 0.13 |
| C3G G5A G7A C10A C18U | 0.03 |

| Variant | self-cleavage |
| --- | --- |
| C3G G5C C13G U20C G21A | 0.09 |
| C3G A14C G19C U20A G27U C45G | 0.02 |
| C3G C18U G40A C45A | 0.21 |
| C3G C13U A16U C18A C31G | 0.04 |
| C3U A11C C37G | 0.02 |
| C3U A4C G7A G30A | 0.96 |
| C3G C8U A14G G27U | 0.01 |
| C3G A14G U20A U38G | 0.01 |
| C3U A4U G17C | 0.04 |
| C3U C10U A11U A24U | 0.05 |
| C3U A12U G21C G44U | 0.08 |
| C3G C10U G29A C37A | 0.08 |
| C3U C10G C23A A25C | 0.12 |
| C3G G17C A25C U28C | 0.03 |
| C3G A16C C23U U28A U34C | 0.15 |
| C3G C15G G33U A39U | 0.03 |
| C3U C8U G30U C31G U38A | 0.16 |
| C3U A25U G27C G35U | 0.07 |
| C3U A14U G22U C23A | 0.59 |
| C3G C13A C15G | 0.13 |
| C3G C15G G22C | 0.04 |
| C3U C10U C13A | 0.05 |
| C3G G5C C8A U9C G17U C45G | 0.01 |
| C3G G19C U20A G33C | 0.1 |

| Variant | self-cleavage |
| --- | --- |
| C3G C8A C10G G36C | 0.02 |
| C3U C10G U20G A26G C31U | 0.03 |
| C3G G7U U20A A25C C37U | 0.04 |
| C3G U28A G29A C46U | 0.24 |
| C3U A12G C13U | 0.03 |
| C3G C10A A25U | 0.02 |
| C3U C13G A14G U20A U34C | 0.02 |
| C3U A24G G30U | 0.76 |
| C3U A11G U32A G44A | 0.01 |
| C3G G22U A41C | 0.24 |
| C3G G17U G35U C45U | 0.08 |
| C3U C13A C31A G40U | 0.2 |
| C3G G21U A24G G36A C37A | 0.31 |
| C3G G5U G19A U28A | 0.78 |
| C3G G5U A39U | 0.14 |
| C3G A16C G19A C31A | 0.02 |
| C3G G5C A12C C15A G40U | 0.05 |
| C3U C10U G19A | 0.19 |
| C3G G29U G30U C37G | 0.05 |
| C3G A16G G22C C23U G36A | 0.02 |
| C3U A6G G21A G33U | 0.05 |
| C3G G22C A25G C45A | 0.03 |
| C3G C10U U38C U43G | 0.01 |
| C3G A16U A24C G36C G44A C45U | 0.01 |

| Variant | self-cleavage |
| --- | --- |
| C3U A4G G7A U34A C42G | 0.01 |
| C3U A11C U20A G22A A24G C42G | 0.04 |
| C3G G5A G21A G36C | 1.57 |
| C3U C8U U9A A12U U34C | 0.49 |
| C3G C13A A16C A26G | 0.16 |
| C3U A6G C23G C31A | 0.02 |
| C3G A26U C31U | 0.03 |
| C3G U28G G30A G35C | 0.14 |
| C3G U38C C42U | 0.03 |
| C3U A6C U32C | 0.06 |
| C3G C10G G21U G30U C46A | 0.01 |
| C3G G40A C42U C46A | 0.11 |
| C3U A16G G17A G29C | 0.05 |
| C3G A24C G36A G40A | 0.08 |
| C3U C8U U38A | 0.22 |
| C3U A6C A14U G19C G44A | 0.76 |
| C3U A25G A26C G27A | 0.02 |
| C3U A4G C8U C31G C46G | 0.14 |
| C3G C18U G30A | 0.17 |
| C3G C18U G30U | 0.07 |
| C3G C10A A12C A14C G19U | 0.04 |
| C3G A12G C23U U43G | 0 |
| C3U A14G A16U G27A | 0.29 |
